# Data from PubChem BioAssay AID596 (National Center for Advancing Translational Sciences (NCATS), 2007).
# About 1,400 (2%) of roughly 71,000 compounds were called active. Inconclusive means that the source gave no clear call. Such entries were picked first, then a sample of the others. Calls come from the whole dose curve; as a rule, active = well fitted curve in the direction sought with a large enough effect; inconclusive = small, poorly fitted or top-dose-only effect; inactive = no such curve, though single readings can be large or run the other way. Where the call is inconclusive, the potency comes from a doubtful curve fit.
# Target: Microtubule-associated protein tau (Homo sapiens) (UniProt P10636)
# UniProt P10636, sequence (P10636 whole entry, looked up): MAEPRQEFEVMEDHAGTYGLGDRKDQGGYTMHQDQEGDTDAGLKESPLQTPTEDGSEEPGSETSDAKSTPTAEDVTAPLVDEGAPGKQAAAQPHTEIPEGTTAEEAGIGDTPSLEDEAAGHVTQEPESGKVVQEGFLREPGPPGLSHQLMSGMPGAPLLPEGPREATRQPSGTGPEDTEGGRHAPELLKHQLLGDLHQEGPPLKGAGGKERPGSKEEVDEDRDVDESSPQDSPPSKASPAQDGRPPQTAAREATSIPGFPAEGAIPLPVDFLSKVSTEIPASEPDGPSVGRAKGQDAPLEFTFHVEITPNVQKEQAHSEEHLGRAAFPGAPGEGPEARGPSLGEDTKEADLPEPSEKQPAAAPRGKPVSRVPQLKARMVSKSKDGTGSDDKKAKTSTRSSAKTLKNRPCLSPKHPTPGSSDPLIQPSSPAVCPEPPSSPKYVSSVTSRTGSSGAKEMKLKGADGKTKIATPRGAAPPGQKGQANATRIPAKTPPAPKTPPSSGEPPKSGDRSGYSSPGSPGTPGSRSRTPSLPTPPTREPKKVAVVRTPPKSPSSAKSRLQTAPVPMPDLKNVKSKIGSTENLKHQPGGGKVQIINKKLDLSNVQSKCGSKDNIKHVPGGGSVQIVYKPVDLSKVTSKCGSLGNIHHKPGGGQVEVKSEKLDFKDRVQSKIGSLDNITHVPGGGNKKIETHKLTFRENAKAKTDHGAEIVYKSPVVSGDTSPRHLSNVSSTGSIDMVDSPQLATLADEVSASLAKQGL
# Test: qHTS Assay for Tau Filament Binding;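 note: actives lower thioflavin S fluorescence by blocking filaments or displacing dye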
# Conditions: recombinant tau filaments, thioflavin S fluorescence, 15 h, filaments grown with octadecylsulfate alongside compound; series mostly up to 57.1 µM
# In short: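 Tau 2 uM in ThS buffer dispensed; compound added; 60 uM ODS added (finals 1 uM tau, 30 uM ODS); 15 h 37 C; fluor ex450/em510.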
# % is set by controls: 0 for no effect and ±100 for the full control effect; potency is the fitted concentration of half-maximal effect.
Compound,Potency,"activity change, negative = inhibition"
CCCn1c(=O)c2[nH]c(C3CCCC3)nc2n(CCC)c1=O,inconclusive: 39.8 µM [decreasing],–
Cc1c(-c2ccc(Cl)cc2)noc1C1CCN(CCc2ccccc2)CC1,inconclusive: 39.8 µM [decreasing],–
Cc1nc2cnc(Oc3cccc(Cl)c3)nc2n(Cc2ccc(F)cc2)c1=O,inconclusive: 12.6 µM [decreasing],–
Oc1cc(O)c2c(c1)O[C@H](c1ccc(O)c(O)c1)[C@@H](O)[C@@H]2c1c(O)cc(O)c2c1O[C@@H](c1ccc(O)c(O)c1)[C@H](O)C2,–,inactive: 2.5% [at 11.4 µM]
Cc1nn(C)c(C)c1N=Cc1c(O)ccc2ccccc12,inconclusive: 25.1 µM [decreasing],–
COc1ccc(N2CCN(C(=O)CSc3nnc(-c4ccc5[nH]c(C)c(C)c5c4)o3)CC2)cc1,inconclusive: 10 µM [decreasing],–
CC1C(C#N)=C(N)OC2=C1C(=O)CC(C)(C)C2 (configuration not stated),inactive,–
COc1ccc(Nc2ccc3c(c2)=NC2(CCCCC2)[N+]=3[O-])cc1,active: 15.8 µM,–
CCNC(=O)[C@H]1O[C@H](n2cnc3c(N)nc(NCCc4ccc(CCC(=O)O)cc4)nc32)[C@@H](O)[C@@H]1O,inconclusive: 39.8 µM [decreasing],–
CC(=O)OC[C@@H]1O[C@@H](Oc2cc(OC(C)=O)c3c(=O)cc(-c4ccc(OC(C)=O)c(OC(C)=O)c4)oc3c2)[C@H](OC(C)=O)[C@H](OC(C)=O)[C@@H]1OC(C)=O,inconclusive: 39.8 µM [decreasing],–
CN1CCN(C(=O)c2cc3nc(-c4ccc(Cl)cc4)cc(C(F)(F)F)n3n2)CC1,active: 2.51 µM,–
Cc1cccc(CNc2nc(-c3ccc4c(c3)OCO4)nc3ccccc23)c1,inconclusive: 3.16 µM [decreasing],–
Nc1c(C(=O)NCc2ccco2)sc2nc3c(cc12)C(=O)CCC3,active: 20 µM,–
CCOC(=O)c1sc(NC(=O)C2CCCO2)c(C(=O)OC)c1C (configuration not stated),inconclusive: 20 µM [decreasing],–
COc1ncc2nc(-c3ccc(F)cc3)c(=O)n(Cc3ccc(F)cc3)c2n1,inconclusive: 10 µM [decreasing],–
C[C@@H](CCc1ccc(O)cc1)NCCc1ccc(O)c(O)c1,inconclusive: 31.6 µM [decreasing],–
O=C(COc1ccccc1)Nc1cccc2nsnc12,inconclusive: 25.1 µM [decreasing],–
O=c1cc(-c2ccccc2)[nH]n1-c1nc2ccccc2[nH]1,inconclusive: 25.1 µM [decreasing],–
O=C(O)COCCN1CCN([C@@H](c2ccccc2)c2ccc(Cl)cc2)CC1,inactive,–
C[C@@H]1C[C@@]2(C)Oc3ccccc3[C@H]3OC[C@]1(COC(=O)Nc1ccccc1)[C@@H](C)[C@@H]32,inconclusive: 31.6 µM [decreasing],–
Cc1coc(NC(=O)CSc2nc(-c3ccncc3)cc(C(F)(F)F)c2C#N)n1,inconclusive: 1.58 µM [decreasing],–
c1ccc2c(-c3nc(C4CCCCC4)no3)cc(-c3ccncc3)nc2c1,inconclusive: 3.16 µM [decreasing],–
Cc1cc(-c2cc(N)n(-c3ccccc3)n2)c(C)n1C1CCCC1,inconclusive: 25.1 µM [decreasing],–
Cc1ccc(N=Nc2c(O)ccc3cc(S(=O)(=O)O)ccc23)cc1,active: 3.16 µM,–
COC(=O)c1ccc2c(c1)NC(=O)C1CCCN21 (configuration not stated),inactive,–
O=S(=O)(NCC(c1ccccc1)N1CCNCC1)c1ccc(Cl)cc1 (configuration not stated),inconclusive: 6.31 µM [decreasing],–

Compound,Potency,"activity change, negative = inhibition"
Cc1nn(-c2ccccc2)c2[nH]c(=O)c(CNc3ccc(N4CCOCC4)cc3)cc12,active: 20 µM,–
CCC(=O)N[C@@H]1Cc2ccccc2[C@@H](c2ccccc2)C1,inconclusive: 39.8 µM [decreasing],–
O=C(O)c1cc(=O)c2c(Cl)cc(Cl)cc2[nH]1,inconclusive: 39.8 µM [decreasing],–
c1ccc(CCNc2ncnc3c2cnn3-c2ccccc2)cc1,inconclusive: 31.6 µM [decreasing],–
CCCn1c(C2CC(=O)N(c3cc(OC)ccc3OC)C2)nc2ccccc21 (configuration not stated),inconclusive: 15.8 µM [decreasing],–
CC1(C)[C@@H](O)CC[C@@]2(C)[C@H]1CC[C@]1(C)[C@H]2C(=O)C=C2[C@@H]3C[C@@](C)(C(=O)O)CC[C@]3(C)CC[C@@]21C,inconclusive: 39.8 µM [decreasing],–
COC(=O)[C@@]1(Cc2ccccc2)[C@H]2c3cc(C(=O)N4CCCC4)n(CCSCCO)c3C[C@H]2CN1C(=O)c1ccccc1,inactive,–
COc1ccc([C@@H]2OC[C@]3(COC(C)=O)[C@H](C)C=C(C)[C@@H]2[C@H]3C)cc1,inconclusive: 39.8 µM [decreasing],–
COc1ccc(C2C(C(C)=O)=C(C)N=c3s/c(=C\c4ccc5c(c4)OCO5)c(=O)n32)c(OC)c1 (configuration not stated),active: 3.98 µM,–
Cc1noc(C(=O)Nc2ccc3c(c2)OCO3)c1Cl,active: 10 µM,–
O=S(=O)(c1cccc2nsnc12)N1CCc2ccccc21,inconclusive: 39.8 µM [decreasing],–
O=C(CCN1c2ccccc2Sc2ccccc21)OCC(=O)N1CCN(C(=O)c2ccco2)CC1,inconclusive: 20 µM [decreasing],–
Cc1onc(-c2ccccc2Cl)c1C(=O)OCC(=O)c1ccc2c(c1)OCCO2,inactive,–
O=c1ccn([C@H]2O[C@H](CO)[C@@H](O)[C@@H]2O)c(=O)[nH]1,inconclusive: 39.8 µM [decreasing],–
O=C(c1cnccn1)N1CCC[C@@]2(CCN(c3cccc(-c4ccccc4)c3)C2)C1,inconclusive: 31.6 µM [decreasing],–
CCCCC(CC)COP(=O)(OCC(CC)CCCC)OCC(CC)CCCC (configuration not stated),inconclusive: 10 µM [decreasing],–
O=C(CSc1nnnn1-c1ccccc1)CC(=O)Nc1ccc(Cl)cc1,inconclusive: 15.8 µM [decreasing],–
CC1=CC(C)(C)Nc2cc(C)c(C)cc21,inconclusive: 25.1 µM [decreasing],–
COCCNC(=O)COc1ccc(OCCNC[C@@H](O)COc2ccccc2)cc1,inconclusive: 39.8 µM [decreasing],–
O=C(O)NCC1CCCCC1 (tested in a mixture with another compound),–,inactive: 1.7% [at 11.4 µM]
c1ccc(-c2cc(-c3nnc4sc(-c5ccccn5)nn34)[nH]n2)cc1,active: 1 µM,–
Nc1ncc(-c2cc3ccccc3oc2=O)s1,inconclusive: 31.6 µM [decreasing],–
O=C(O)CCCC[C@@H]1SC[C@H]2NC(=O)N[C@H]12,inconclusive: 39.8 µM [decreasing],–
C/C(=N\n1nnnc1Nc1ccccc1)c1ccc(N)cc1,inconclusive: 25.1 µM [decreasing],–
CN1CCN(c2ccccc2NC(=O)c2ccc(Br)o2)CC1,inactive,–
CN1/C(=C\C(=O)COC(=O)Cn2nnc(-c3ccccc3)n2)C(C)(C)c2ccccc21,inconclusive: 20 µM [decreasing],–

Compound,Potency,"activity change, negative = inhibition"
CCn1c(SCC(=O)NCc2ccco2)nc2cccnc21,inactive,–
O=C(CCc1ccccc1)Nc1ccc(N2CCOCC2)cc1,active: 15.8 µM,–
COc1ccc(OC)c(NC2=NC3(CCCC3)N=C(N)N2)c1,inactive,–
CC(C)C(NS(=O)(=O)c1cccc2nsnc12)C(=O)N1CCc2ccccc2C1 (configuration not stated),inconclusive: 39.8 µM [decreasing],–
CC(C)CN(C(=O)c1ccc(=O)n(C)n1)c1nc2ccccc2s1,active: 25.1 µM,–
Nc1nc(N)c(N=Nc2ccc(C(=O)O)c(O)c2)c(N)n1,–,inactive: 0.4% [at 11.4 µM]
N[C@H](CCC(=O)N[C@H](CSN=O)C(=O)NCC(=O)O)C(=O)O,inconclusive: 39.8 µM [decreasing],–
COc1ccc(Oc2ncc3nc(-c4ccc(Cl)cc4)c(=O)n(C)c3n2)cc1,inactive,–
COc1cc2ncnc(Nc3cccc(Cl)c3)c2cc1OC,inconclusive: 39.8 µM [decreasing],–
COCCn1nnnc1CN(CCc1ccc(OC)c(OC)c1)Cc1cc2ccc(C)cc2[nH]c1=O,inconclusive: 25.1 µM [decreasing],–
Cc1ccc(NC2c3ncccc3C(=O)N2C2CCCCC2)cc1C (configuration not stated),inconclusive: 39.8 µM [decreasing],–
CCOC(=O)c1cnc2c(cnn2CC)c1NN=C(C)C,inconclusive: 39.8 µM [decreasing],–
CN=c1scc(C)n1/N=C/c1ccc(O)cc1,inconclusive: 20 µM [decreasing],–
O=C(Nc1cccnc1)c1cnn2c(C(F)F)cc(C3CC3)nc12,inactive,–
c1ccc2c(c1)nnn2CN1CCOCC1,–,inactive: 6.2% [at 11.4 µM]
CN(C)c1ccc(-c2nccc(NCCN3CCOCC3)n2)cc1,inactive,–
CCCCNC(=O)NS(=O)(=O)c1ccc(NS(=O)(=O)c2ccccc2)cc1,inactive,–
O=C(COC(=O)c1cc(-c2ccco2)nc2ccccc12)NCc1ccc2c(c1)OCO2,active: 12.6 µM,–
Cc1cc(NC(=O)CSc2nc3c(c(-c4cccnc4)c2C#N)CCC3)no1,–,inactive: 286% [at 11.4 µM]
O=C(Nc1ccccc1C(=O)NC(Cc1c[nH]c2ccccc12)C(=O)O)c1ccco1 (configuration not stated),inactive,–
C=CCCCCCC,inactive,–
CCCSc1nc(N)cc(=O)[nH]1,inactive,–
O=C(Nc1ccccc1)N1CC=C(c2ccccc2)CC1,inconclusive: 15.8 µM [decreasing],–
O=[N+]([O-])c1ccc2cn[nH]c2c1,inconclusive: 39.8 µM [decreasing],–
CCCCOc1ccc(N2C(=O)CC(N(O)c3ccccc3)C2=O)cc1 (configuration not stated),inactive,–
